Read counts are not given, so values of variants with three or more changes are uncertain.
B1: LINE1-mini (parent)
chain: GGCAGAGCUCAACACAGCGUGGCAAAGUGGCUGUGGCUAGACUGCC

Variants of: B1
Assay: self-cleavage, relative activity (ratio to wild type); higher = more cleavage; in vitro, sequencing; the parent is a self-cleaving ribozyme

Variant | self-cleavage
C13A C23G U38C C46A | 0.05
G5C A12C U20A G22U G29A | 0
A26G C42A U43A | 0.03
C23U A24U G35U | 0.06
G1C C23U U38G | 0.02
C10G G36A U38G | 0
C3U A4U U34C | 0.12
G22U A24G G27A | 0.1
G1C C13A C15A C37A | 0.01
G2U U9C C18G | 0.01
C3A A11U A16C A24U A26U C46U | 0.02
U20G G33U C45A | 0.05
G1U A12G C13U | 0.02
G17A G27U G29A C31G U43A | 0.01
G1A C10A G33U U34A U38A | 0.04
G2U A11C G27U C31G G33C C42G | 0.01
A11C C18U A24U G30A | 0.21
G1A C18G U28A G33U | 0.03
A11U A24G A25U G40C | 0.01
G2C G21C G44A | 0.02
A11C G21U C23A A39U | 0.03
G2A C10U G22A | 0.21
U9C G17C A25C G35A U38A | 0.01
G1U G2U C3G A39C U43A | 0.03

Variant | self-cleavage
A12C C15U C23A | 0.02
A11G C18G G27C G35C C42U U43A | 0.02
G33U C37U U38G G44U | 0.05
G5U A12C C13U A14U | 0.03
G7A C10A C15U | 0.02
C18U U32A G33U | 0.01
G19C C31U U43C | 0.02
C37G G40C G44U | 0.04
C3A U38C G40A U43A | 0.02
C3G A4U C15A A26C | 0.06
G5U G21U G44C | 0.09
C3G C15A G19C C31U | 0.03
G21C A25G G27C | 0.14
C18U C23U C37U | 0.02
C3G A14G G17A | 0.05
A11U G30U G35U A41U | 0.02
C3A G19C U32C | 0.1
A11C A12G G29A G30C C37U | 0.01
G17A G22A G27U U28A G29U | 2.15
C23A A26C U38G C46U | 0.01
G2A A4C A25U U43C | 0.44
C3A G22C C45U | 1.01
U20G A25C G30A | 0.09
C3A C13A C37A C46U | 0.24

Variant | self-cleavage
G5C A11U C13U A14U U20G A25U G29U G40A | 0.01
C13G G17C C18A G29C | 0.03
A6G C37G U38C | 0.01
U32A U34C C46G | 0
A4C G35U U38G G44A | 0.03
G5U C23A U28G A41U | 0
C3G G17U G21A A41G | 0.29
A16C G19U G35C A41G | 0.05
C8G C23A G29U U34A | 0.07
C13A C15A G30A | 0.1
G1C C10A A12U A16C G33C | 0.01
A4G G5A G17C C31U | 0
A6U G21U G29C U34G U38A | 0.05
U20G A24C U38A | 0.29
C3A C37A U38A | 0.23
C15A U20C C31G U38A | 0
G2A A6C C18U C23G A25U U28C | 0.11
C10G G21C G29U C31U | 0.05
A16G A26G U28A G30U | 0.11
U32C C42A U43C | 0.08
C10U G19A C23A C31A C45G | 0.4
A6C C31G G33A G36C | 0.07
A4C A6C U9A C37U | 0.04
G27C G30A G40U C46U | 0.14

Variant | self-cleavage
A6C C15A U28A G29A G30U | 0.04
G5A A14C G17A C23A U32G G44C | 0.02
A11U G19A U20G U28A A41C U43C G44A | 0
U28A G35A C42A | 0.06
C18U G19A U32A G33A C42A | 0
G2U A16G G30A G35C | 0.01
G1A C13A A16U | 0.06
A24G U34C U38C | 0.09
A26G G30A U43A | 0.17
C23U A24U G27U U38A C45U | 0.77
A16G G19C G22C C46U | 0.13
U9C C37U C42U | 0.01
G7A C18A G21C A24U G29A | 0.05
C3A U34G G40A | 0.05
C8A G21C A39G | 0.06
C10U C13U G35U | 0.13
C10U A14C C18U G21A G44U | 0.05
C3A C10U C18U | 0.04
C13U C23U A24C C37U | 0.05
G7A G21U G40A C42A | 0.27
C10U A11C A12U | 0.04
G2A C3U G7A G21U | 0.44
G1A C8G U28C G36C | 0.05
G1U C8G U9C C10G | 0.01

Variant | self-cleavage
C37G U38A G40C | 0.02
A14U G22A G40A | 0.13
G17U A24G C31A G40A | 0.01
G5A C10G A14G U28A U32G | 0
G19U G40A U43C | 0.02
G2C C18U G29U | 0.08
A6U G17U G21C A24G A25C A39U C42A | 0.05
C3A C8U C15A A41U | 0.44
A11C A16G C42U | 0.02
A4U G5U A16U | 0.26
G21C G35C U43C | 0.05
C3U U9A G21C A39G | 0.05
C8A A14G A24G | 0.64
A14U G17A U20C G30C G36C | 0.09
C23G U28A G35U A39C | 0.04
G2C A12C C13U | 0.04
C10U A11G C15G C18G | 0.02
A12U C18U A26C G27C U28C G30C U43A | 0.29
G7A C18G G29C G33U U38G G44A | 0.01
G1U C31U C37A G44U | 0.04
A4U G7C C18G G22A A24U G30U G44A | 0.02
G1C A26G U34A G35C | 0
A12G A14G C18U G29U U32G | 0.02
G2A A16G G27U C37G | 0.38

Variant | self-cleavage
G2C C18U A25U G36U U38C | 0.03
G1C A11U G33U | 0.01
G1C G30U C42G | 0.01
A14U A25U C42A | 0.02
G1U G5A C15G C18G U32C C37A | 0.03
C10A G17C G21U A25G C46U | 0.03
G2C C8U U20C C45G | 0.09
G7U A16U C31U U32A U34A G44U | 0.08
C10A U20A G27U | 0.03
A41C U43C G44C | 0.05
C15A C37A U43G | 0
G2U A24C U34C A41G | 0.02
A4U C18U A26G U28C G35U G40U | 0.08
A11U A12G G44U | 0.02
G1C C15U G19A | 0.1
G7U G21A G27U | 0.08
G2U A6U U20A G21U G33C C37A | 0
A6G G30U C31G G44U | 0.03
C3A A25G G29C G33A U34G | 0.03
A12C U20A G35U G36A | 0.01
C18U A24U A25U | 0.14
A6U C10U G40C | 0.03
G2C A26U C31A U32G G44A | 0.02
G1C A4U G30U A41G C46A | 0.02

Variant | self-cleavage
C10G G17A G22U G27U G33A | 0.01
C8A U28G U32C G36A C37A | 0.13
G7A A11U G33U C42A | 0.06
G2U A4C C15G G17A C31U | 0.03
A14U C18U A24C | 0.31
G2U G7A U9C U20G | 0.02
C3A G7A C23A | 0.25
G2U U20A G21U A25U A26G G30U | 0.05
G1U C3A G17U C42G | 0.43
C3U A16C G29A G35A | 0.05
U9A C10G G17A C45A | 0.04
C13G G19A G29A G33U | 0.12
G5U C13U G21U G30A | 0.08
A6G C8A C18A G19A G36C G44C | 0.02
A6C G22A C37A A39C | 0.02
C13U A24U U34G | 0.03
C15A G19U A26U | 0.06
C23U U38G A39G G40U | 0.09
A12U G21A G22A C23U A26C | 0.14
G35U C42A C45U | 0.06
G7A C8A C15A G22U G40U | 0.57
C15G G17A G35U | 0.01
U9A A24C A25G U28C G30A G44U | 0.03

Reference: the RNAGym collection of RNA variant scans (doi:10.7554/elife.90254)
